Assay: soluble on expression in E. coli; label from the status in PepcDB or PDB records

Row | Sequence | soluble on expression in E. coli
1 | MSLAKPAVFLDRDGVINVDHGYVHDEHDFQFIEGVFEATAALQRMGYLLVLVTNQSGIARGKFSEERFISLTQWMDWNFADNGVEFDGIYYCPHHAEHGIGQYKEECDCRKPKPGMFLSARDFLNIDMANSVMVGDKAEDMMAAEAAGVGTKILVRTGKPITEQGEALATVVLDSIRDVPHYLLRVKKEGHHHHHH | soluble
2 | MSLTDRLASLFESAVSMLPMSEARSLDLFTEITNYDESACDAWIGRIRCGDTDRVTLFRAWYSRRNFGQLSGSVQISMSTLNARIAIGGLYGDITYPVTSPLAITMGFAACEAAQGNYADAMEALEAAPVAGSEHLVAWMKAVVYGAAERWTDVIDQVKSAGKWPDKFLAGAAGVAHGVAAANLALFTEAERRLTEANDSPAGEACARAIAWYLAMARRSQGNESAAVALLEWLQTTHPEPKVAAALKDPSYRLKTTTAEQIASRADPWDPGSVVTDNSGRERLLAEAQAELDRQIGLTRVKNQIERYRAATLMARVRAAKGMKVAQPSKHMIFTGPPGTGKTTIARVVANILAGLGVIAEPKLVETSRKDFVAEYEGQSAVKTAKTIDQALGGVLFIDEAYALVQERDGRTDPFGQEALDTLLARMENDRDRLVVIIAGYSSDIDRLLETNEGLRSRFATRIEFDTYSPEELLEIANVIAAADDSALTAEAAENFLQAAKQLEQRMLRGRRALDVAGNGRYARQLVEASEQCRDMRLAQVLDIDTLDEDRLREINGSDMAEAIAAVHAHLNMREGHHHHHH | soluble

Source: the DeepSol protein solubility set
